89 compounds from publication PMC4336329 (PLoS ONE, 2015) can be followed below.

The campaign covered roughly 310,000 compounds. About 14,000 (4.5%) showed an effect of 50% or more. Effects have a minus sign here. The list shows a part of the results.
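Note: peak tail current of the secondary pulse compared with the same well before compound.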

human ether-à-go-go-related gene (hERG) potassium channel, sequence (Q12809 whole entry, looked up): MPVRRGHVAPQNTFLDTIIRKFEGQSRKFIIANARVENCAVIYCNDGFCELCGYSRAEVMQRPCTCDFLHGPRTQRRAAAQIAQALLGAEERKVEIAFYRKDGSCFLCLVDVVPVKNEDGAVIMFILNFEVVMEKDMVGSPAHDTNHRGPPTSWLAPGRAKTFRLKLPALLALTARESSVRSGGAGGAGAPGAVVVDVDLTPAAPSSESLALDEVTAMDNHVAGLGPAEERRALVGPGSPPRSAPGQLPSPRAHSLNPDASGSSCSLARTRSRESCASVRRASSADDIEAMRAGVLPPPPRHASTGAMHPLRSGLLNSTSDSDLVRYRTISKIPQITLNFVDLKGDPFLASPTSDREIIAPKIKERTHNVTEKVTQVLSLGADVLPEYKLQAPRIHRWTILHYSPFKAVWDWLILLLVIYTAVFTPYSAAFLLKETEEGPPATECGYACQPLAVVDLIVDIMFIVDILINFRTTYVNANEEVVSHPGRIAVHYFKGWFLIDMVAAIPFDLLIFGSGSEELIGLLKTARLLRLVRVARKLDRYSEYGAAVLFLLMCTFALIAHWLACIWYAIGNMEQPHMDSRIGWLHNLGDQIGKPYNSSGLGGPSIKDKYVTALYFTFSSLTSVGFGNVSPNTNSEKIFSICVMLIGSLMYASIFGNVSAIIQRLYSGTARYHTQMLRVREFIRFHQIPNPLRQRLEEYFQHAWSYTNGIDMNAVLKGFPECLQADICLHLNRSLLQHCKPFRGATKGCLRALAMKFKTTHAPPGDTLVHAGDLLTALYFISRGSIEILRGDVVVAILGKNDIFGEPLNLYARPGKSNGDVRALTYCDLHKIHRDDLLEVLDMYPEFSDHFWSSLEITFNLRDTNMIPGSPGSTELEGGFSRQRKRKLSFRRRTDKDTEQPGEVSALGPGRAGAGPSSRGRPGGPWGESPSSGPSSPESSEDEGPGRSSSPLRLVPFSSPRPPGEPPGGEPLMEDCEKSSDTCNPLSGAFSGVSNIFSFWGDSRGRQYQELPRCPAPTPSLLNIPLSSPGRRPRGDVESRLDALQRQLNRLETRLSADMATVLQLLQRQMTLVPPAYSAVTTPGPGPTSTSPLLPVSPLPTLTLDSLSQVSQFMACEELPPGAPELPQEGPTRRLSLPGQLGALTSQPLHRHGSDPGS

The test has as its target human ether-à-go-go-related gene (hERG) potassium channel (human, UniProt Q12809). In words: primary screen, population patch clamp on CHO cells stably expressing hERG.
For the compound `O=C(N/N=C/c1ccco1)C1CC1`, the “hERG current change (%, negative = inhibition) at 10uM” value is on record as -0.246%.
As for `Cc1ccc(S(=O)(=O)N(C)C)cc1NC(=S)NCCc1ccccn1`, the “hERG current change (%, negative = inhibition) at 10uM” value is 24.2%.
`Cc1c(C(=O)NCC(C)C)sc2nc(-c3ccc(F)cc3)cn12`: the “hERG current change (%, negative = inhibition) at 10uM” value is listed as -5.46%.
For `O=C(O)c1cccc(NC(=O)c2ccc(COc3ccc(Cl)cc3)cc2)c1` the value was 16.7%; for `C/C(=N\NC(N)=O)C1(C)CCCCC1`, 8%.
Consider `COc1ccccc1N1CCN(C(=O)CSc2nc(N)cc(=O)[nH]2)CC1`, for which the “hERG current change (%, negative = inhibition) at 10uM” value was found to be 6.2%.
For `COc1cc(C(=O)NC2CCN(CC(=O)NC3CCCCC3C)CC2)cc(OC)c1OC` (centres unmarked) the value was 4.58%.
As for `CCOC(=O)N1CCN(S(=O)(=O)c2ccc(OCC)c(C)c2)CC1`, the figure is -13.5%; as for `O=C(NCC(=O)N(c1ccccc1)C(C(=O)NCC1CCCO1)c1ccccc1)c1ccco1` (centres unmarked), 12.2%.
Regarding `O=S(=O)(NCC(Nc1ccccc1)c1ccccc1)c1ccc(Cl)cc1` (centres unmarked), the “hERG current change (%, negative = inhibition) at 10uM” value is -0.486%.
For `O=S(=O)(c1ccc(Cl)cc1)N1CCC(n2cnc3cc(C(F)(F)F)ccc32)CC1` the value was -78.4%; for `Cc1c2cnn(CC(=O)NCCCN3CC(C)CC(C)C3)c(=O)c2c(C)n1Cc1ccccc1Cl` (centres unmarked), -36.7%; for `Cc1ccc(S(=O)(=O)Nc2cc(-c3ccc(Cl)cc3)nn2C)cc1`, 9.97%.
Turning to `COc1ccccc1OCc1nc(C#N)c(N2CCCC2)o1`, the “hERG current change (%, negative = inhibition) at 10uM” value is 20.1%.
As for `CC(=O)Nc1ccc(NC(=O)C2CCC(CNS(=O)(=O)c3cccc4nsnc34)CC2)cc1` (centres unmarked), the figure is 17.3%; as for `C/C(=N/NC(=O)CNC(=O)c1ccccn1)c1cccc([N+](=O)[O-])c1`, -4.71%.
For `O=C(NC(=S)Nc1cccnc1)c1cccs1` the value was -3.08%.
For `CCCCn1c(O)c(C(CC)=NCc2cc(OC)cc(OC)c2)c(=O)[nH]c1=O`, the “hERG current change (%, negative = inhibition) at 10uM” value is -13.8%.
For `Cc1ccc(CNC(=O)C2CCCN(c3nn4c(=O)cc(C)nc4s3)C2)cc1` (centres unmarked) the value was -31.1%.
Turning to `Cc1ccnc(NS(=O)(=O)c2ccc(NC(=O)c3ccc(Br)o3)cc2)n1`, the “hERG current change (%, negative = inhibition) at 10uM” value was -29.5%.
In the case of `CN1CCN(C(=O)CCNC(=O)Cn2ccc3ccccc3c2=O)CC1`, the “hERG current change (%, negative = inhibition) at 10uM” value stood at 25.6%.
As for `CCC(=O)Nc1nc2ccccc2n1Cc1ccccc1C`, the figure is 10.1%.
As for `CCC(=O)Nc1c2c(nn1-c1ccc(OC)cc1)CSC2`, the figure is 14.7%.
As for `O=C(CSc1nncn1-c1ccccc1)NCc1cccs1`, the figure is 11.1%; as for `CCC1(CC)C(=O)NC(=O)NC1=Nc1ccccc1`, 12.7%; as for `CCOC(=O)/C(C#N)=C/c1ccc(OC(=O)c2ccccn2)cc1`, -5.99%.
With `Cc1cccc(NC(=O)C2CC(=O)n3ncnc3N2)c1` (centres unmarked), the “hERG current change (%, negative = inhibition) at 10uM” value is given as 8.05%.
Take `CCOC(=O)C1CCN(CC(O)COCc2ccccc2)CC1.O=C(O)C(=O)O` (centres unmarked): the “hERG current change (%, negative = inhibition) at 10uM” value was -31.1%.
Take `CC(C(=O)Nc1ccccc1C(=O)N1CCOCC1)N(c1ccc(Cl)cc1)S(C)(=O)=O` (centres unmarked): the “hERG current change (%, negative = inhibition) at 10uM” value came out at 6.41%.
As for `CC(C)(C)C(=O)CC1(O)C(=O)N(Cc2ccc(Cl)cc2)c2ccccc21` (centres unmarked), the figure is -2.51%; as for `CC(C)CN(C(=O)COC(=O)CNC(=O)c1ccccc1F)c1c(N)n(Cc2ccccc2)c(=O)[nH]c1=O`, -2.12%.
As for `COc1ccc2nc3oc(C(=O)N4CCC5(CC4)OCCO5)cc3cc2c1`, the figure is -16.5%; as for `S=C1NC(C23CC4CC(CC(C4)C2)C3)=CC(c2ccc3c(c2)OCO3)N1` (centres unmarked), -3.35%.
In the case of `Nc1nc(NCc2ccccc2)nc(-c2ccccc2)n1`, the “hERG current change (%, negative = inhibition) at 10uM” value worked out at 2.96%.
For `CC(C)CNS(=O)(=O)c1ccc(CCC(=O)Nc2cc(Cl)ccc2Oc2ccccc2)cc1` the value was 2.49%; for `COc1cccc(CN2CCNC(=O)C2CC(=O)NCCn2ccc3ccccc32)c1OC` (centres unmarked), 8.66%; for `Cl.O[C@@H](c1cc(C(F)(F)F)nc2c(C(F)(F)F)cccc12)[C@H]1CCCCN1`, 6.31%.
For `CCc1cc(-c2onc(C)c2-c2cscn2)c(O)cc1OC` the value was 18.1%; for `COc1ccc(C2=CC3=C(Br)C(=O)C(C)(OC(=O)c4ccco4)C(=O)C3=CO2)cc1` (centres unmarked), 17.7%.
For the compound `CC(C)Cn1cc(C(=O)N2CCC3(CC2)OCCO3)c2c3ccccc3n(C)c2c1=O`, the “hERG current change (%, negative = inhibition) at 10uM” value is -5.7%.
Consider `COC(=O)[C@H](CC(C)C)NC(=O)N1CCCCC1`, for which the “hERG current change (%, negative = inhibition) at 10uM” value is on record as 11%.
With `COCCN(Cc1cn(C)nc1-c1ccc(Oc2ccccc2)cc1)C(C)C`, the “hERG current change (%, negative = inhibition) at 10uM” value is given as -43.3%.
For `CCc1noc(C)c1C(=O)Nc1nc(-c2cc(OC)ccc2OC)cs1` the value was -3.31%; for `Cc1ccc(C(=O)NCCSC(C)(C)C)cc1[N+](=O)[O-]`, -15.8%.
For the compound `COc1ccccc1N1CCN(Cc2ccc(F)cc2)CC1`, the “hERG current change (%, negative = inhibition) at 10uM” value is listed as -14.7%.
In the case of `CN1CCC(=NNC(=O)C(=O)NC2CCCC2)CC1`, the “hERG current change (%, negative = inhibition) at 10uM” value was 12.7%.
As for `COc1cc(C(=O)c2ccccc2)c(OC)cc1C(=O)Nc1ccc(O)cc1`, the figure is -27.4%; as for `Cc1ccc(-c2nc(C(=O)O)cs2)cc1`, 17.8%.
For `C=CCn1c2ccccc2n2nc(C)c(=O)nc12` the value was -0.579%.
As for `CN(C)S(=O)(=O)c1cccc(NC(=O)COC(=O)CCOc2ccccc2)c1`, the figure is 5.81%; as for `CCOC(=O)c1c(S(=O)(=O)NCC(=O)Nc2cccc(C)n2)c(C)n(C)c1C`, 18.3%; as for `CCN(CC)C(=O)c1ccc(C)c(Br)c1`, -0.776%.
In the case of `COc1ccc(C/C(=N\OC(C)=O)c2ccc(OC)cc2)cc1`, the “hERG current change (%, negative = inhibition) at 10uM” value is recorded as -1.98%.
As to `CCOc1ccc(CC(=NCCO)C2=C(O)CC(C)(C)CC2=O)cc1OCC`, the “hERG current change (%, negative = inhibition) at 10uM” value is reported as 1.83%.
For `CC1CN(CCCCOc2ccc3ccccc3c2)CC(C)O1` (centres unmarked) the value was -7.6%; for `O=c1[nH]c(=O)n(-c2ccc(F)cc2)c(O)c1/C=C1\C=Nc2ccccc21`, 6.63%; for `CCOC(=O)c1c(C)[nH]c(C(=O)OCC(=O)c2ccc3c(c2)NC(=O)CO3)c1C`, 5.51%.
For `N#CCCn1cc(C(=O)Nc2ccc([N+](=O)[O-])cc2)c(-c2cc3ccccc3o2)n1` the value was 24.7%.
As for `CC1CN(CN2C(=O)c3ccccc3C2=O)CC(C)O1` (centres unmarked), the figure is -3.94%.
Consider `COc1ccc(CNCCc2ccc(Cl)cc2)c(OC)c1OC.O=C(O)C(=O)O`, for which the “hERG current change (%, negative = inhibition) at 10uM” value was -51.6%.
With `COc1cccc(CNCC(=O)Nc2ccc(N3CCOCC3)cc2)c1.O=C(O)C(=O)O`, the “hERG current change (%, negative = inhibition) at 10uM” value is listed as -1.05%.
Regarding `Br.O=S1(=O)C[C@@H]2N=C(N/N=C/c3ccccc3)S[C@@H]2C1`, the “hERG current change (%, negative = inhibition) at 10uM” value is -5.87%.
For `CC(C)N1CCC(N2CCN(CCCc3ccccc3)CC2CCO)CC1` (centres unmarked) the value was 10.1%.
As for `Cc1nc2cc(NC(=O)NCc3ccccc3)ccc2o1`, the figure is 14.6%; as for `COc1ccc2cc3cc(C(=O)N4CCN(C5CCCCC5)CC4)oc3nc2c1`, 6.25%; as for `Cc1ccccc1-n1ncc2c1CC(C)(C)CC2NC(=O)C1CCC1` (centres unmarked), -12.2%.
For `O=C(O)Cc1sc(Nc2cccc3ccccc23)nc1-c1ccc(Cl)cc1` the value was 22.5%; for `Cc1cnc(C(=O)OCC(=O)NC2CCCCC2)cn1`, 7.81%; for `O=C(COc1ccc(F)cc1)Nc1nnc(C2CCCCC2)s1`, 20.4%.
For `O=C(CSc1nc2ccccc2s1)Nc1ccc(C(=O)O)cc1`, the “hERG current change (%, negative = inhibition) at 10uM” value came to 2.96%.
For `COc1ccccc1C(=O)NC(=O)COC(=O)CCOc1ccc(C)cc1`, the “hERG current change (%, negative = inhibition) at 10uM” value is listed as 17.3%.
For `CC(C)c1cc(-c2cc(-c3ccc(Cl)cc3)on2)nc(NCC2CC2)n1` the value was 12.9%; for `Cc1cccc(C(=O)N/C(=C\c2ccco2)C(=O)N2CCCCCC2)c1`, -11.2%; for `Cc1ccc([N+](=O)[O-])cc1S(=O)(=O)N(C(=O)c1ccncc1)c1ccc2oc3c(c2c1)CCCC3`, -1.37%.
For `O=C1c2cccc3cc([N+](=O)[O-])cc(c23)C(=O)N1CC1CCCO1` (centres unmarked) the value was -8.56%; for `CCn1c(=O)cc(OCC(=O)Nc2cccc(C)n2)c2ccccc21`, -14.1%.
For `COCCn1cnc2c1c(=O)n(Cc1ccc(Br)cc1)c(=O)n2Cc1ccccc1` the value was 1.08%; for `CN(CC(=O)Nc1cc(S(=O)(=O)N2CCCC2)ccc1Cl)Cc1ccc2c(c1)OCO2`, -3.25%; for `COc1cccc(-c2nc(-c3ccc4c(c3)NC(=O)CO4)cs2)c1`, -6.15%.
On to `CCCCN(CCCC)c1ccc(C(=O)c2ccccc2C(=O)O)c(O)c1`, for which the “hERG current change (%, negative = inhibition) at 10uM” value is -75.2%.
As for `Cc1c(Cl)cccc1NC(=O)NC1CCCCC1`, the figure is 18.3%; as for `CCOCCc1c(O)nc(SCC)[nH]c1=O`, 2.8%.
For `CSc1ccccc1NC(=O)COc1ccccc1C` the value was 6.39%; for `CCOC(=O)C1=NOC(Cn2cc(C#N)c(=O)n(C)c2=O)C1` (centres unmarked), 13.5%.
For `CC(COc1ccccc1)N(CCCl)Cc1ccccc1.Cl` (centres unmarked) the value was -1.35%; for `O=C(Nc1cccc(Cl)c1)Nc1ccccc1C(=O)O`, -5.74%; for `CN1CCN(C(=O)c2cnn3c(C(F)(F)F)cc(-c4cccs4)nc23)CC1`, -12.3%.
Turning to `O=C(Cn1cncn1)N/N=C/c1cccnc1`, the “hERG current change (%, negative = inhibition) at 10uM” value came out at 18.4%.
As for `CCCc1cc(N2CCCC(C(=O)Nc3ccc(OC)cc3OC)C2)n2ncnc2n1` (centres unmarked), the figure is -51.4%.
